Source: article PMC12820563, “FoxP3 forms a head-to-head dimer in vivo and stabilizes its multimerization on adjacent microsatellites”
Some of the results follow.

The sequences below were run against T1, MBP-FoxP1dN (Mus musculus, UniProt P58462 326-579) (assay: PD-seq (MBP pull-down with sequencing); 20 mM Tris-HCl pH 7.5, 100 mM NaCl, 1.5 mM MgCl2, 0.4 uM protein, 0.1 uM dsDNA library, 30 min, room temperature, amylose pull-down; high values mean tight binding). Conditions: protein: recombinant; tags: His6-MBP; chain copies: 2; dsDNA, one strand shown.
T1 sequence: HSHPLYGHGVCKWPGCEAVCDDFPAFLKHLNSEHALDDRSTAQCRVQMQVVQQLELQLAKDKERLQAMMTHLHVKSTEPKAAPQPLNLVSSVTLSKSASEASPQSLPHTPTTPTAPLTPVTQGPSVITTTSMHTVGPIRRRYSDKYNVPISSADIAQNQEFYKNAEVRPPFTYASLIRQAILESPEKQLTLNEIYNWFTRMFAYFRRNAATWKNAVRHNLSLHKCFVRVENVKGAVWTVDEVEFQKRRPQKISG
Summary of the method: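 Binding is the reads-per-million enrichment of pull-down relative to input, pooled across replicates. For this, 0.4 µM His6-MBP-tagged mouse FoxP3 or FoxP1 fragment lacking the N-terminus, made in E. coli, was incubated with 0.1 µM Klenow-filled double-stranded degenerate DNA library for 30 min at room temperature in Tris pH 7.5 buffer with NaCl and MgCl2. Complexes bound to amylose resin were washed three times before proteinase K released the DNA for PCR barcoding and Illumina sequencing.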
With “GATGATTGTTCTCCCAGCTGATGAATTATACCGTTCGAGTAAACAAATTTTCCTAATCTTTCTGTTCAAGCGCCATCTAC” the binding signal was 1.08 RPM ratio (pull-down/input). “GATGATTGTTCTCCCAGCTGATGAATTTAATCGATCGAGTAAACAAATTTTCCTAATCTTTCTGTTCAAGCGCCATCTAC” was tested, and the binding signal was 0.923 RPM ratio (pull-down/input). With “GATGATTGTTCTCCCAGCTGATGAATTCTGGTGTTCGAGTAAACAAATTTTCCTAATCTTTCTGTTCAAGCGCCATCTAC” the binding signal was 1.05 RPM ratio (pull-down/input). In the case of “GATGATTGTTCTCCCAGCTGATGAATTATAGCATTCGAGTAAACAAATTTTCCTAATCTTTCTGTTCAAGCGCCATCTAC”, the binding signal was 1.32 RPM ratio (pull-down/input). For “GATGATTGTTCTCCCAGCTGATGAATTTTGACCATCGAGTAAACAAATTTTCCTAATCTTTCTGTTCAAGCGCCATCTAC”, the binding signal was 0.935 RPM ratio (pull-down/input). For “GATGATTGTTCTCCCAGCTGATGAATTACCCCTCTCGAGTAAACAAATTTTCCTAATCTTTCTGTTCAAGCGCCATCTAC”, the binding signal was 0.961 RPM ratio (pull-down/input). With “GATGATTGTTCTCCCAGCTGATGAATTGCATTCCTCGAGTAAACAAATTTTCCTAATCTTTCTGTTCAAGCGCCATCTAC” the binding signal was 1.33 RPM ratio (pull-down/input). For “GATGATTGTTCTCCCAGCTGATGAATTTACACGATCGAGTAAACAAATTTTCCTAATCTTTCTGTTCAAGCGCCATCTAC”, the binding signal was 1.22 RPM ratio (pull-down/input). “GATGATTGTTCTCCCAGCTGATGAATTCCTACAGTCGAGTAAACAAATTTTCCTAATCTTTCTGTTCAAGCGCCATCTAC” was tested, and the binding signal was 0.795 RPM ratio (pull-down/input). “GATGATTGTTCTCCCAGCTGATGAATTTAGGATTTCGAGTAAACAAATTTTCCTAATCTTTCTGTTCAAGCGCCATCTAC” was tested, and the binding signal was 0.978 RPM ratio (pull-down/input). In the case of “GATGATTGTTCTCCCAGCTGATGAATTGCCACCTTCGAGTAAACAAATTTTCCTAATCTTTCTGTTCAAGCGCCATCTAC”, the binding signal was 0.995 RPM ratio (pull-down/input). In the case of “GATGATTGTTCTCCCAGCTGATGAATTATCGTGCTCGAGTAAACAAATTTTCCTAATCTTTCTGTTCAAGCGCCATCTAC”, the binding signal was 1.01 RPM ratio (pull-down/input). “GATGATTGTTCTCCCAGCTGATGAATTCCTAGTTTCGAGTAAACAAATTTTCCTAATCTTTCTGTTCAAGCGCCATCTAC” was tested, and the binding signal was 0.893 RPM ratio (pull-down/input). “GATGATTGTTCTCCCAGCTGATGAATTTCACAAATCGAGTAAACAAATTTTCCTAATCTTTCTGTTCAAGCGCCATCTAC” was tested, and the binding signal was 1.23 RPM ratio (pull-down/input). “GATGATTGTTCTCCCAGCTGATGAATTCTCTGCCTCGAGTAAACAAATTTTCCTAATCTTTCTGTTCAAGCGCCATCTAC” was tested, and the binding signal was 0.82 RPM ratio (pull-down/input). With “GATGATTGTTCTCCCAGCTGATGAATTGACGATCTCGAGTAAACAAATTTTCCTAATCTTTCTGTTCAAGCGCCATCTAC” the binding signal was 1.04 RPM ratio (pull-down/input). In the case of “GATGATTGTTCTCCCAGCTGATGAATTGAAACGCTCGAGTAAACAAATTTTCCTAATCTTTCTGTTCAAGCGCCATCTAC”, the binding signal was 0.86 RPM ratio (pull-down/input). With “GATGATTGTTCTCCCAGCTGATGAATTATAACATTCGAGTAAACAAATTTTCCTAATCTTTCTGTTCAAGCGCCATCTAC” the binding signal was 1.27 RPM ratio (pull-down/input). “GATGATTGTTCTCCCAGCTGATGAATTTTAACGTTCGAGTAAACAAATTTTCCTAATCTTTCTGTTCAAGCGCCATCTAC” was tested, and the binding signal was 0.849 RPM ratio (pull-down/input). In the case of “GATGATTGTTCTCCCAGCTGATGAATTTAGCTAATCGAGTAAACAAATTTTCCTAATCTTTCTGTTCAAGCGCCATCTAC”, the binding signal was 1.09 RPM ratio (pull-down/input). In the case of “GATGATTGTTCTCCCAGCTGATGAATTGGTGGTGTCGAGTAAACAAATTTTCCTAATCTTTCTGTTCAAGCGCCATCTAC”, the binding signal was 0.948 RPM ratio (pull-down/input). “GATGATTGTTCTCCCAGCTGATGAATTTGTCCGTTCGAGTAAACAAATTTTCCTAATCTTTCTGTTCAAGCGCCATCTAC” was tested, and the binding signal was 1.03 RPM ratio (pull-down/input). For “GATGATTGTTCTCCCAGCTGATGAATTGAAATCATCGAGTAAACAAATTTTCCTAATCTTTCTGTTCAAGCGCCATCTAC”, the binding signal was 0.994 RPM ratio (pull-down/input). In the case of “GATGATTGTTCTCCCAGCTGATGAATTAGTGGACTCGAGTAAACAAATTTTCCTAATCTTTCTGTTCAAGCGCCATCTAC”, the binding signal was 0.903 RPM ratio (pull-down/input). For “GATGATTGTTCTCCCAGCTGATGAATTCACGAACTCGAGTAAACAAATTTTCCTAATCTTTCTGTTCAAGCGCCATCTAC”, the binding signal was 0.818 RPM ratio (pull-down/input). “GATGATTGTTCTCCCAGCTGATGAATTGTCAAGATCGAGTAAACAAATTTTCCTAATCTTTCTGTTCAAGCGCCATCTAC” was tested, and the binding signal was 1.03 RPM ratio (pull-down/input). With “GATGATTGTTCTCCCAGCTGATGAATTCCCCTCATCGAGTAAACAAATTTTCCTAATCTTTCTGTTCAAGCGCCATCTAC” the binding signal was 0.862 RPM ratio (pull-down/input). For “GATGATTGTTCTCCCAGCTGATGAATTGCCACGCTCGAGTAAACAAATTTTCCTAATCTTTCTGTTCAAGCGCCATCTAC”, the binding signal was 0.965 RPM ratio (pull-down/input). In the case of “GATGATTGTTCTCCCAGCTGATGAATTTAGTTCTTCGAGTAAACAAATTTTCCTAATCTTTCTGTTCAAGCGCCATCTAC”, the binding signal was 0.97 RPM ratio (pull-down/input). In the case of “GATGATTGTTCTCCCAGCTGATGAATTGGTAAGGTCGAGTAAACAAATTTTCCTAATCTTTCTGTTCAAGCGCCATCTAC”, the binding signal was 0.881 RPM ratio (pull-down/input). “GATGATTGTTCTCCCAGCTGATGAATTTAACCGCTCGAGTAAACAAATTTTCCTAATCTTTCTGTTCAAGCGCCATCTAC” was tested, and the binding signal was 0.857 RPM ratio (pull-down/input). For “GATGATTGTTCTCCCAGCTGATGAATTGTCCCACTCGAGTAAACAAATTTTCCTAATCTTTCTGTTCAAGCGCCATCTAC”, the binding signal was 0.967 RPM ratio (pull-down/input). “GATGATTGTTCTCCCAGCTGATGAATTCCTTATCTCGAGTAAACAAATTTTCCTAATCTTTCTGTTCAAGCGCCATCTAC” was tested, and the binding signal was 0.825 RPM ratio (pull-down/input). With “GATGATTGTTCTCCCAGCTGATGAATTCAAGCCCTCGAGTAAACAAATTTTCCTAATCTTTCTGTTCAAGCGCCATCTAC” the binding signal was 0.749 RPM ratio (pull-down/input). For “GATGATTGTTCTCCCAGCTGATGAATTTGGGATGTCGAGTAAACAAATTTTCCTAATCTTTCTGTTCAAGCGCCATCTAC”, the binding signal was 0.922 RPM ratio (pull-down/input). In the case of “GATGATTGTTCTCCCAGCTGATGAATTACTGCCCTCGAGTAAACAAATTTTCCTAATCTTTCTGTTCAAGCGCCATCTAC”, the binding signal was 0.944 RPM ratio (pull-down/input). “GATGATTGTTCTCCCAGCTGATGAATTAAAGAGTTCGAGTAAACAAATTTTCCTAATCTTTCTGTTCAAGCGCCATCTAC” was tested, and the binding signal was 0.941 RPM ratio (pull-down/input). In the case of “GATGATTGTTCTCCCAGCTGATGAATTGTAGATATCGAGTAAACAAATTTTCCTAATCTTTCTGTTCAAGCGCCATCTAC”, the binding signal was 1.09 RPM ratio (pull-down/input). In the case of “GATGATTGTTCTCCCAGCTGATGAATTTTACAGGTCGAGTAAACAAATTTTCCTAATCTTTCTGTTCAAGCGCCATCTAC”, the binding signal was 0.759 RPM ratio (pull-down/input). “GATGATTGTTCTCCCAGCTGATGAATTCCAGGGGTCGAGTAAACAAATTTTCCTAATCTTTCTGTTCAAGCGCCATCTAC” was tested, and the binding signal was 0.771 RPM ratio (pull-down/input).
